Data taken from the supplement of paper PMC3334620.
In all, about 33,000 sequences were measured (“E-score (-0.5 to 0.5)”: median about -0.021, highest 2% from about 0.32 on). Some of the results follow.

The sequences below were run against T1, Zap1 (UniProt P47043) (assay: PBM E-score (8-mer binding enrichment) (E-score (-0.5 to 0.5)); higher = stronger / more preferred TF binding; most listed sequences are background and not binding sites). Settings: protein concentration: 200 nM; construct: GST-full length.
T1 sequence: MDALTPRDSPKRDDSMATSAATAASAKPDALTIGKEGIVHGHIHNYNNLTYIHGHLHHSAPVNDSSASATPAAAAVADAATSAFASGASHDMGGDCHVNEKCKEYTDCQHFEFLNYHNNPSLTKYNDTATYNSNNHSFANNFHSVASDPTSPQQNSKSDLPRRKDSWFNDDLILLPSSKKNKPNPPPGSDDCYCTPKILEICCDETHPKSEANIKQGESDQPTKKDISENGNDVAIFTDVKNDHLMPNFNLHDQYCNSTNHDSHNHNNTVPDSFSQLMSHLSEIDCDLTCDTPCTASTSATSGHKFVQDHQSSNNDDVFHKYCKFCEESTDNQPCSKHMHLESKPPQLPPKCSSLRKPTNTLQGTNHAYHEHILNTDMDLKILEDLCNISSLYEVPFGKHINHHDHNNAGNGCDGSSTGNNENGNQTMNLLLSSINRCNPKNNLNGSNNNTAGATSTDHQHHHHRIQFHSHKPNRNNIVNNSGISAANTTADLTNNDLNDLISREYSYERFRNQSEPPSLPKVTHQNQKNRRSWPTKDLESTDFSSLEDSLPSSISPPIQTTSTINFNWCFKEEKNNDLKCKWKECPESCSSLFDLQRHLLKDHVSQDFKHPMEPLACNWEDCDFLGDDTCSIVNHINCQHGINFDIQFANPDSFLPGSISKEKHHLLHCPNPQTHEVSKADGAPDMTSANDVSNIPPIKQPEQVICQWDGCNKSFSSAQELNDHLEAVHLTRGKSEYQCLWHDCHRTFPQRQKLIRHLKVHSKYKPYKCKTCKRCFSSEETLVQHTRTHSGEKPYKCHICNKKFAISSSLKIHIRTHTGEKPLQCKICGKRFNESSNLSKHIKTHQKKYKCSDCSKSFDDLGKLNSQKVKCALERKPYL
Procedure, shortened: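 Detection of bound protein used fluorescent anti-GST, with scans normalised by masliner. The proteins were GST-tagged yeast transcription factors applied at about 100-200 nM to universal all-10-mer Agilent arrays made double-stranded by primer extension. Each ungapped eight-base word, pooled with its reverse complement, was scored with an E-score from the Universal PBM Analysis Suite.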

| Sequence | PBM E-score |
| --- | --- |
| TCGCCCAA | -0.149 |
| ATGAATAC | 0.0293 |
| CAACCGGG | 0.0223 |
| ACAATCGA | 0.00326 |
| ACGCGCGG | -0.0976 |
| CTCATAGA | -0.15 |
| ACAAAGTG | 0.0999 |
| TATACTGA | 0.21 |
| GCCATCGC | -0.213 |
| ATGAGGAC | -0.0846 |
| AGATAATG | 0.0746 |
| CGTTTGCC | -0.142 |
| TGAAAAAA | 0.245 |
| CACGCCGG | 0.151 |
| ATTATTAA | 0.194 |
| ATTCATCC | -0.0266 |
| AAAAGGTT | 0.444 |
| AGATAGTC | -0.145 |
| CCCTGAGG | 0.247 |
| CCATAATA | 0.176 |
| CAGTGATC | -0.114 |
| TCTAGAGA | -0.21 |
| CGTATTAG | 0.221 |
| ATGTCGGA | -0.0249 |
| GCGGGAAA | 0.00815 |

| Sequence | PBM E-score |
| --- | --- |
| GAATTACA | 0.0427 |
| CTCTCGCC | -0.227 |
| GGCTGAAA | 0.0624 |
| AGATCGAA | 0.0903 |
| CGTGACCC | 0.418 |
| AGTGGCCG | -0.0344 |
| CCCATCGC | -0.275 |
| GTTTCTTA | 0.0562 |
| ACGGTTAT | 0.414 |
| CAATGAGA | 0.0824 |
| ACCGTCCT | -0.0433 |
| AGGTAGTG | 0.268 |
| ACCAGGTA | 0.0466 |
| AAATTGGA | 0.0329 |
| AACGATTG | -0.0887 |
| CCTTGGAG | 0.14 |
| CGGAGGGA | -0.214 |
| GAGAAACA | -0.0105 |
| GAGTGTGA | -0.0297 |
| AAAGCCGC | -0.0967 |
| GCAGCGGC | -0.12 |
| CGGCCAAC | -0.0563 |
| ATCCCTAA | 0.006 |
| CACACGTA | -0.16 |
| CCGTTGCG | 0.105 |

| Sequence | PBM E-score |
| --- | --- |
| CAAGAACA | 0.0455 |
| GGTATGTA | 0.137 |
| ATCTCCGC | -0.181 |
| CCACTTGC | -0.1 |
| ACCCATCT | 0.178 |
| CTCCGAAA | 0.0202 |
| ACGAGGGA | -0.104 |
| CGCAAAGC | -0.198 |
| GAGATGGA | -0.149 |
| CGTCGGAA | -0.157 |
| AAATGAAA | 0.23 |
| AGGCTTAA | -0.0964 |
| CGACTCGA | -0.151 |
| GACTGTGA | -0.0753 |
| AGCCCATA | 0.0307 |
| CCATCTCC | -0.0661 |
| GGCCGCCA | -0.128 |
| AGCTCTTA | -0.0175 |
| AGGATTCC | -0.157 |
| CTAGATGC | -0.0848 |
| AGGAACCT | 0.293 |
| ATGTTATA | -0.0204 |
| ATAGGCAA | -0.265 |
| ACTCGCTC | -0.246 |
| GATTAGGA | -0.0516 |

| Sequence | PBM E-score |
| --- | --- |
| CTCAGGAA | -0.144 |
| AGTTTAAG | 0.0747 |
| TTAAGCAA | 0.0198 |
| CTGAGACA | -0.239 |
| CCGCGTTA | 0.173 |
| ATCCAGTG | 0.0495 |
| CTCCTGGA | -0.158 |
| TAATTCTA | 0.0993 |
| GCGCTCGA | -0.253 |
| ACGTCGGG | -0.319 |
| GCCGGACA | -0.0773 |
| AAAATCGT | -0.0678 |
| CAGAGCGC | -0.29 |
| AGATCCAT | -0.258 |
| GTGCCAAC | -0.116 |
| ATGGGAGA | -0.298 |
| CTGTTTCA | -0.0207 |
| TAAACTTA | 0.0734 |
| AGGCGCGG | -0.13 |
| GGAGAACC | 0.101 |
| ATCCCTGA | -0.173 |
| AGGGTCCC | 0.32 |
| CCGAAAAG | 0.155 |
| GCGAAGCC | -0.188 |
| CTGTCTCA | -0.134 |

| Sequence | PBM E-score |
| --- | --- |
| CCGGCTCC | -0.104 |
| AGTGCGGA | -0.0454 |
| AGGGCCAC | 0.0845 |
| CAATATCC | 0.0427 |
| GTTCGACA | 0.0917 |
| AAACAGAT | 0.142 |
| AGCTTTGG | -0.00406 |
| ACGTAATG | -0.0815 |
| AATTAAAT | 0.0722 |
| CCATTTCC | 0.0771 |
| CAGCCGAG | 0.0143 |
| GCGTTTTA | -0.0504 |
| CACGATAC | -0.0853 |
| GTCCAAGA | -0.0994 |
| TCACGCCA | -0.0187 |
| AATAATAA | 0.242 |
| AGACTCCA | -0.3 |
| AAGTACCA | 0.211 |
| TATAGGCA | -0.0951 |
| TAGTTGAA | 0.186 |
| CTCTCAAA | 0.0974 |
| ATAACAGC | -0.0193 |
| CCACGTTC | -0.258 |
| AAGCTGGT | 0.091 |
| TGAAGCCA | -0.0449 |

| Sequence | PBM E-score |
| --- | --- |
| ATTGCTTG | -0.0496 |
| GGTAAGGA | -0.00782 |
| CGTCCACC | -0.301 |
| AAAACAAT | 0.00317 |
| CATTGGGC | -0.0785 |
| ATCCTTCA | -0.0682 |
| GACTTCAC | -0.198 |
| GCACTCAC | -0.09 |
| GCGAGCGC | -0.0722 |
| GGCTTAAA | 0.159 |
| TGAGCGCA | -0.131 |
| CGCCCAGA | -0.149 |
| AGGGCCCC | -0.0584 |
| AGGGGTCC | 0.0654 |
| ACCGTTTG | 0.223 |
| CCTGGCGA | -0.155 |
| AAAGTTGC | -0.156 |
| TACCGTCA | 0.201 |
| TAGCTCAA | 0.0268 |
| AGGTCTTG | 0.0687 |
| AAGGGGGA | -0.245 |
| ATTGTATA | 0.153 |
| TGGCAACA | -0.0616 |
| CGGAGGAA | -0.349 |
| AATCCAGT | -0.0583 |

| Sequence | PBM E-score |
| --- | --- |
| CAACAGGC | -0.233 |
| CCTTAGGA | 0.179 |
| TATTTCAA | 0.264 |
| AGGCTAGG | -0.205 |
| AAGGCGGT | 0.126 |
| CGATCATC | -0.045 |
| TTGCACAA | 0.0882 |
| AGCATGTG | -0.0756 |
| CATGATGA | 0.0134 |
| TACGCGAA | 0.154 |
| CCGCTAAA | 0.0911 |
| CCCAGCCC | -0.174 |
| AAGTATCG | 0.0197 |
| GGATCCAA | -0.0158 |
| GGAACGTA | -0.253 |
| GCATTGCC | -0.25 |
| CGCGGAAG | -0.00159 |
| ACCGGTGC | -0.0626 |
| AATAGTTC | 0.0137 |
| AATAACTC | 0.192 |
| GAAACTTC | -0.031 |
| ATCCGTCC | -0.253 |
